In all, about 52,000 compounds went through this assay and about 4,300 (8.3%) were called active. No stated cut-off is given here; in the data, active means survival mostly below about 52% (no sharp cut-off); inactive means mostly above about 56%. Some of the results follow.

This experiment has as its system DeltatarO mutant. In words: growth inhibition of S. aureus wild type versus tarO mutant, primary screen, teichoic acid synthesis inhibitors, RN4220, OD600 (AID 463173). The settings on record: OD600, 18 h, hits give low values, screened at 18.75 µg/mL (by protocol).
On to `O=C(NC1CCCC1)c1ccc2c(c1)N(Cc1ccccc1Cl)C(=O)c1ccccc1S2`, for which the survival was inactive: 94%.

For `Cc1ccc(Cl)cc1NC(=O)CSc1nc(C)c(C)c(C)c1C#N`, the survival is inactive: 54%. The result for `COc1ccc(-c2noc(CSc3nnc(-c4ccc(Cl)cc4)n3C)n2)cc1OC` reads inactive: 64%; that for `COc1ccc(CCNC(=O)Cn2cc(S(=O)(=O)Cc3cccc(Cl)c3)c3ccccc32)cc1OC`, inactive: 120%. With `CCc1cnc2c(c1SCC(=O)Nc1cc(Cl)ccc1OC)c(=O)n(C)c(=O)n2C` the figure was inactive: 101%; with `CCOC(=O)c1cnc2c(C(F)(F)F)cccc2c1Nc1cccc(C(=O)OC)c1`, active: 14%; with `CC(C)NC(=O)C1CCCN1C(=O)Nc1ccccc1` (centres undefined), inactive: 108%. With `CCOc1ccccc1NC(=O)CSc1nc2c(oc3ccccc32)c(=O)n1Cc1ccco1` the figure was inactive: 69%; with `CN1CCN(C(=O)Nc2cccc(Cl)c2)c2cccnc21`, inactive: 110%. With `Cc1ccc(CNC(=O)C2CCCN(S(=O)(=O)c3ccc4c(ccn4C)c3)C2)cc1` (centres undefined), the survival is inactive: 102%.

Consider `CCCCN(CCCC)CCNC(=O)c1cc(=O)[nH]c2ccc(S(=O)(=O)N3CCCCCC3)cc12`, for which the survival was inactive: 109%.

As to `CC(C)c1ccc(NC(=O)CSc2nc(=O)n(Cc3cccnc3)c3c2CCC3)cc1`, the survival is inactive: 129%.

For the molecule `CCOC(=O)c1[nH]c2ccccc2c1NC(=O)c1cc(OCC)c(OCC)c(OCC)c1`, the survival is inactive: 97%. With `Cc1cc(=O)n2nc(N3CCC(C(=O)NCc4ccc(Cl)cc4)CC3)sc2n1` the figure was inactive: 99%; with `Cc1ccc2onc(CC(=O)N3CCN(c4cccc(C)c4C)CC3)c2c1`, active: 39%.

`CCOc1ccc(NC(=O)Cn2c(CCC(=O)O)ccc2-c2ccc(C)cc2)cc1`: the survival is inactive: 65%.

For the molecule `CCc1ccc2[nH]c(=O)c(CN(Cc3ccccc3)Cc3nnnn3C3CCCC3)cc2c1`, the survival was inactive: 85%. With `Clc1ccc(Nc2nc(-c3ccccc3)c3cc(Cl)ccc3n2)cc1` the figure was inactive: 54%. With `COc1ccc(-c2noc(CSc3nnc(-c4ccncc4)n3-c3ccc(C)c(C)c3)n2)cc1` the figure was inactive: 63%. The result for `CNC(=O)c1ccc(NC(=O)COc2ccc(-c3nn(C)c(=O)c4ccccc34)cc2)cc1` reads active: 62%; that for `CC(Cc1c[nH]c2ccccc12)NC=O` (centres undefined), inactive: 107%. On to `Cc1ccc(OCC(=O)N(Cc2sccc2C)C2CCS(=O)(=O)C2)cc1` (centres undefined), for which the survival was inactive: 113%. The result for `COc1cc2nc(SCC(=O)Nc3cccc(C)c3)n3nc(-c4ccccc4)nc3c2cc1OC` reads inactive: 75%; that for `Cc1ccc([N+](=O)[O-])cc1S(=O)(=O)N1CCn2cccc2C1c1ccc(F)c(F)c1` (centres undefined), inactive: 80%.

(Values after PubChem BioAssay AID463173 (ICCB-Longwood Screening Facility, Harvard Medical School, 2010).)
